# Laboratory results reported in the supplement of paper PMC8728848.
# Some of the results follow.
# B1: NKp30 (Homo sapiens), O14931 (protein)
# chain: MAWMLLLILIMVHPGSCALWVSQPPEIRTLEGSSAFLPCSFNASQGRLAIGSVTWFRDEVVPGKEVRNGTPERFGRLAPLASSRFLHDHQAELHIRDVRGHDASIYVCRVEVLGLGVGTGNGTRLVVRKEHPQLGAGTHADPEAPEAEGAPSVFLFPPKPKDTLMISRTPEVTCVVVDVSHEDPEVKFNWYVDGVEVHNAKTPREEQYNSTYRVVSVLTVLHQDWLNGKEYKCKVSNKALPAPIEKTISKAKGQPREPQVYTLPPSRDELTKNQVSLTCLVKGFYPSDIAVEWESNGQPENNYKTTPPVLDSDGSFFLYSKLTVDKSRWQQGNVFSCSVMHEALHNHYTQKSLSLSPGK
# How the values were obtained:
# Assay in all cases: glycan array binding signal (z-score within array); higher = stronger binding
# Settings in all cases: glycan notation: IUPAC condensed, linker removed
# [1] = target: GalNAc(b1-3)GalNAc
# How it was run: (§1)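 The binding signal is a Z-score computed within each array. Data were drawn from 3228 arrays in the Consortium for Functional Glycomics database, restricted to those with a known protein sequence. Scores were averaged over arrays of the same protein sequence at different concentrations or buffers, and over linkers, and negative values can be taken as non-binding.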
# [2] = target: GalNAc(b1-4)GlcNAc
# How it was run: as §1
# [3] = target: Glc(a1-4)Glc
# How it was run: as §1
# [4] = target: Glc(a1-6)Glc(a1-6)Glc
# How it was run: as §1
# [5] = target: Glc(b1-4)Glc
# How it was run: as §1
# [6] = target: Glc(b1-6)Glc
# How it was run: as §1
# [7] = target: GlcA(b1-3)Gal
# How it was run: as §1
# [8] = target: GlcA(b1-3)GlcNAc
# How it was run: as §1
# [9] = target: GlcA(b1-6)Gal
# How it was run: as §1
# [10] = target: GlcNAc(a1-3)Gal(b1-4)GlcNAc
# How it was run: as §1
# [11] = target: GlcNAc(a1-6)Gal(b1-4)GlcNAc
# How it was run: as §1
# [12] = target: GlcNAc(b1-2)Gal(b1-3)GalNAc
# How it was run: as §1
# [13] = target: GlcNAc(b1-2)Man(a1-3)[GlcNAc(b1-2)Man(a1-6)]Man(b1-4)GlcNAc(b1-4)GlcNAc
# How it was run: as §1
# [14] = target: GlcNAc(b1-3)Gal
# How it was run: as §1
# [15] = target: GlcNAc(b1-3)Gal(b1-3)GalNAc
# How it was run: as §1
# [16] = target: GlcNAc(b1-3)Gal(b1-4)Glc
# How it was run: as §1
# [17] = target: GlcNAc(b1-3)Gal(b1-4)GlcNAc
# How it was run: as §1
# [18] = target: GlcNAc(b1-3)Gal(b1-4)GlcNAc(b1-3)Gal(b1-4)GlcNAc
# How it was run: as §1
# [19] = target: GlcNAc(b1-3)GalNAc
# How it was run: as §1
# [20] = target: GlcNAc(b1-3)Man
# How it was run: as §1
# [21] = target: GlcNAc(b1-3)[GlcNAc(b1-4)][GlcNAc(b1-6)]GlcNAc
# How it was run: as §1
# [22] = target: GlcNAc(b1-3)[GlcNAc(b1-6)]Gal(b1-4)GlcNAc
# How it was run: as §1
# [23] = target: GlcNAc(b1-3)[GlcNAc(b1-6)]GalNAc
# How it was run: as §1
# [24] = target: GlcNAc(b1-4)Gal(b1-4)GlcNAc
# How it was run: as §1
# [25] = target: GlcNAc(b1-4)GlcNAc
# How it was run: as §1
# [26] = target: GlcNAc(b1-4)GlcNAc(b1-4)GlcNAc
# How it was run: as §1
# [27] = target: GlcNAc(b1-4)GlcNAc(b1-4)GlcNAc(b1-4)GlcNAc(b1-4)GlcNAc
# How it was run: as §1
# [28] = target: GlcNAc(b1-4)GlcNAc(b1-4)GlcNAc(b1-4)GlcNAc(b1-4)GlcNAc(b1-4)GlcNAc
# How it was run: as §1
# [29] = target: GlcNAc(b1-4)[GlcNAc(b1-6)]GalNAc
# How it was run: as §1
# [30] = target: GlcNAc(b1-6)Gal(b1-4)GlcNAc
# How it was run: as §1
# [31] = target: GlcNAc(b1-6)GalNAc
# How it was run: as §1
# [32] = target: GlcNAc3Prop(b1-4)GlcNAc
# How it was run: as §1
# [33] = target: Kdn(a2-3)Gal(b1-3)GlcNAc
# How it was run: as §1
# [34] = target: Kdn(a2-3)Gal(b1-4)GlcNAc
# How it was run: as §1
# [35] = target: Man(a1-2)Man(a1-2)Man(a1-3)Man
# How it was run: as §1
# [36] = target: Man(a1-2)Man(a1-2)Man(a1-6)[Man(a1-3)]Man
# How it was run: as §1
# [37] = target: Man(a1-2)Man(a1-3)Man
# How it was run: as §1
# [38] = target: Man(a1-2)Man(a1-3)[Man(a1-2)Man(a1-6)]Man
# How it was run: as §1
# [39] = target: Man(a1-2)Man(a1-3)[Man(a1-2)Man(a1-6)]Man(a1-6)[Man(a1-2)Man(a1-2)Man(a1-3)]Man
# How it was run: as §1
# [40] = target: Man(a1-2)Man(a1-3)[Man(a1-2)Man(a1-6)]Man(a1-6)[Man(a1-2)Man(a1-2)Man(a1-3)]Man(b1-4)GlcNAc(b1-4)GlcNAc
# How it was run: as §1
# [41] = target: Man(a1-2)Man(a1-3)[Man(a1-6)]Man(a1-6)[Man(a1-2)Man(a1-3)]Man(b1-4)GlcNAc(b1-4)GlcNAc
# How it was run: as §1
# [42] = target: Man(a1-2)Man(a1-6)[Man(a1-3)]Man(a1-6)[Man(a1-2)Man(a1-2)Man(a1-3)]Man
# How it was run: as §1
# [43] = target: Man(a1-2)Man(a1-6)[Man(a1-3)]Man(a1-6)[Man(a1-2)Man(a1-2)Man(a1-3)]Man(b1-4)GlcNAc(b1-4)GlcNAc
# How it was run: as §1
# [44] = target: Man(a1-3)[Man(a1-6)]Man
# How it was run: as §1
# [45] = target: Man(a1-3)[Man(a1-6)]Man(a1-6)[Man(a1-2)Man(a1-3)]Man(b1-4)GlcNAc(b1-4)GlcNAc
# How it was run: as §1
# [46] = target: Man(a1-3)[Man(a1-6)]Man(a1-6)[Man(a1-3)]Man
# How it was run: as §1
# [47] = target: Man(a1-3)[Man(a1-6)]Man(a1-6)[Man(a1-3)]Man(b1-4)GlcNAc(b1-4)GlcNAc
# How it was run: as §1
# [48] = target: Man(a1-3)[Man(a1-6)]Man(b1-4)GlcNAc(b1-4)GlcNAc
# How it was run: as §1
# [49] = target: Man(a1-6)Man
# How it was run: as §1
# [50] = target: Man(b1-4)GlcNAc
# How it was run: as §1
# [51] = target: Neu5Ac(a2-3)Gal
# How it was run: as §1
# [52] = target: Neu5Ac(a2-3)Gal(b1-3)GalNAc
# How it was run: as §1
# [53] = target: Neu5Ac(a2-3)Gal(b1-3)GalNAc(b1-3)Gal(a1-4)Gal(b1-4)Glc
# How it was run: as §1
# [54] = target: Neu5Ac(a2-3)Gal(b1-3)GalNAc(b1-3)Gal(b1-4)GlcNAc
# How it was run: as §1
# [55] = target: Neu5Ac(a2-3)Gal(b1-3)GalNAc(b1-4)[Neu5Ac(a2-3)]Gal(b1-4)Glc
# How it was run: as §1
# [56] = target: Neu5Ac(a2-3)Gal(b1-3)GalNAc6S
# How it was run: as §1
# [57] = target: Neu5Ac(a2-3)Gal(b1-3)GlcNAc
# How it was run: as §1
# [58] = target: Neu5Ac(a2-3)Gal(b1-3)GlcNAc(b1-3)Gal(b1-3)GlcNAc
# How it was run: as §1
# [59] = target: Neu5Ac(a2-3)Gal(b1-3)GlcNAc6S
# How it was run: as §1
binder,measurement,setting,value
B1,glycan array binding signal (z-score),[1],1.68
same,glycan array binding signal (z-score),[2],-0.089
same,glycan array binding signal (z-score),[3],0.053
same,glycan array binding signal (z-score),[4],0.055
same,glycan array binding signal (z-score),[5],-0.299
same,glycan array binding signal (z-score),[6],-0.037
same,glycan array binding signal (z-score),[7],-0.57
same,glycan array binding signal (z-score),[8],0.258
same,glycan array binding signal (z-score),[9],-0.054
same,glycan array binding signal (z-score),[10],0.868
same,glycan array binding signal (z-score),[11],-0.367
same,glycan array binding signal (z-score),[12],0.539
same,glycan array binding signal (z-score),[13],0.042
same,glycan array binding signal (z-score),[14],-0.224
same,glycan array binding signal (z-score),[15],-0.628
same,glycan array binding signal (z-score),[16],-0.366
same,glycan array binding signal (z-score),[17],-0.475
same,glycan array binding signal (z-score),[18],-0.382
same,glycan array binding signal (z-score),[19],-0.234
same,glycan array binding signal (z-score),[20],-0.416
same,glycan array binding signal (z-score),[21],0.307
same,glycan array binding signal (z-score),[22],-0.303
same,glycan array binding signal (z-score),[23],0.236
same,glycan array binding signal (z-score),[24],0.402
same,glycan array binding signal (z-score),[25],0.115
same,glycan array binding signal (z-score),[26],0.282
same,glycan array binding signal (z-score),[27],-0.751
same,glycan array binding signal (z-score),[28],0.145
same,glycan array binding signal (z-score),[29],-0.794
same,glycan array binding signal (z-score),[30],-0.435
same,glycan array binding signal (z-score),[31],-0.344
same,glycan array binding signal (z-score),[32],-0.446
same,glycan array binding signal (z-score),[33],-0.276
same,glycan array binding signal (z-score),[34],-0.251
same,glycan array binding signal (z-score),[35],-0.025
same,glycan array binding signal (z-score),[36],-0.149
same,glycan array binding signal (z-score),[37],-0.11
same,glycan array binding signal (z-score),[38],-0.612
same,glycan array binding signal (z-score),[39],-0.573
same,glycan array binding signal (z-score),[40],-0.465
same,glycan array binding signal (z-score),[41],-0.318
same,glycan array binding signal (z-score),[42],-0.314
same,glycan array binding signal (z-score),[43],-0.41
same,glycan array binding signal (z-score),[44],-0.025
same,glycan array binding signal (z-score),[45],-0.427
same,glycan array binding signal (z-score),[46],-0.359
same,glycan array binding signal (z-score),[47],-0.192
same,glycan array binding signal (z-score),[48],-0.289
same,glycan array binding signal (z-score),[49],-0.577
same,glycan array binding signal (z-score),[50],-0.521
same,glycan array binding signal (z-score),[51],-0.18
same,glycan array binding signal (z-score),[52],-0.153
same,glycan array binding signal (z-score),[53],-0.287
same,glycan array binding signal (z-score),[54],-0.494
same,glycan array binding signal (z-score),[55],-0.646
same,glycan array binding signal (z-score),[56],0.104
same,glycan array binding signal (z-score),[57],0.054
same,glycan array binding signal (z-score),[58],0.007
same,glycan array binding signal (z-score),[59],-0.236
